Results from the antibiotic and cytotoxicity screens of Wong et al. (2023).
This is one part of the list.

tested on: HepG2; assay: cytotoxicity call (relative viability < 0.9); conditions: 10 µM

| Compound | cytotoxicity call |
| --- | --- |
| C[C@H]1CN([C@@H](C)CO)C(=O)c2cc(-c3ccncc3)cnc2O[C@H]1CN(C)S(=O)(=O)c1ccccc1 | inactive |
| Cc1n[nH]c(=S)[nH]c1=O | inactive |
| CNc1ccccc1C(=O)N1CCc2c([nH]c3ccccc23)C1=O | inactive |
| CCC(=O)Nc1ccc2c(c1)C(=O)N(C)C[C@H](OC)[C@H](C)CN(C(=O)CN1CCOCC1)[C@@H](C)CO2 | inactive |
| C[C@H]1CN([C@@H](C)CO)C(=O)c2cc(NC(=O)C3CCCCC3)ccc2O[C@H]1CN(C)Cc1ccc(-c2ccccc2)cc1 | active |
| CCc1cccc2c3c([nH]c12)C(CC)(CC(=O)O)OCC3 (stereo not drawn) | inactive |
| CCSc1nnc2c(=O)[nH]c(=O)[nH]c2n1 | inactive |
| O=C(N[C@@H]1CC[C@H](CCn2cc(C3(O)CCCC3)nn2)O[C@@H]1CO)C1CCOCC1 | inactive |
| CC(C)NC(=O)N(C)C[C@@H]1Oc2ccc(NC(=O)Cc3ccccc3)cc2CC(=O)N([C@@H](C)CO)C[C@@H]1C | inactive |
| CN1CCN(C(=O)C[C@H]2CC[C@@H](NC(=O)c3ccc4c(c3)OCO4)[C@@H](CO)O2)CC1 | inactive |
| C[C@H]1CN([C@@H](C)CO)C(=O)c2c(c3ccccc3n2C)-c2ccccc2CO[C@H]1CN(C)Cc1ccc2c(c1)OCO2 | inactive |
| C[C@@H]1CN([C@H](C)CO)C(=O)Cc2cc(NS(C)(=O)=O)ccc2O[C@@H]1CN(C)C(=O)Nc1ccc(F)cc1 | inactive |
| C[C@@H]1CN([C@H](C)CO)C(=O)Cc2cc(NC(=O)Cc3cn(C)c4ccccc34)ccc2O[C@@H]1CN(C)Cc1ccc(Cl)c(Cl)c1 | active |
